# Publication PMC12136788
# The other results are listed elsewhere or left out.
# T1: UNK ZnF1-3 (human, UniProt Q9C0B0 31-174)
# T1 sequence: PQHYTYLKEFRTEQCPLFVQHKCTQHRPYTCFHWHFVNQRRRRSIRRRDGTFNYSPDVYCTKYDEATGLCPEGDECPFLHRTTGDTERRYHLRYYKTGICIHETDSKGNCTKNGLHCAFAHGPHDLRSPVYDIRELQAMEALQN
# B1: 156714060_156723743_301_CDS_ENSG00000055163_ENST00000521420|human|control|control (ssRNA)
# RNA: GGGAGUUCUACAGUCCGACGAUCCUCCAGCACCUCUACUGUCUUCUCAUAGAUCUCUACUCGGUUGGGCUGCUCGUUGCAUUUCACCAUGCUGGAGUGGACUGUAGCCUGCUCAAUGUACCUUGCAAUGCCCGUGACAAAUGCCAACAGAGGAUUGAGCAUCA
# B2: chr17:88379672:88379673:+_ENSMUSG00000005370_ENSMUST00000005503|mus_hu|FALSE|FALSE (ssRNA)
# RNA: GGGAGUUCUACAGUCCGACGAUCUCCCUUCUGGGCUUCCUUUGAUUUUGAACCUGUAUAUGGCUUUAAAAGCCUUUUGCUAACCCAGCCCCUUGUUGGGCUGUCAUCAAAAAACUGUACAUGAACACGGACUGAUUUCCCUUUCAACAGAGGAUUGAGCAUCA
# B3: 64804437_64804557_6387_3pUTR_ENSG00000154229_ENST00000413366|human|control|control (ssRNA)
# RNA: GGGAGUUCUACAGUCCGACGAUCAACGUGAGAAAAUGACUGUCAGAUGGUAUCACCUUUCCGAGGCUUUUAAAAAUACAAGAUUGUCACUUUUUCUCUUUUCAGUACUGAGAAAACAAAUUCCAGCAAAAAAAAAAAAAACAGCAACAGAGGAUUGAGCAUCA
# B4: chr17:45705486:45705487:-_ENSMUSG00000023944_ENSMUST00000024739|mus_hu|FALSE|FALSE (ssRNA)
# RNA: GGGAGUUCUACAGUCCGACGAUCAUUGGCUGUCCAGCCGUAGGUGCUGGUCACAAUGCAGCAAGGUGAAGACACAAGUCUAUUGGAGAUUGUCACCUUCUCAACCUUCUUAUCUAAGAUUUCUUUCAUGAGCUUGCAGAGGUUCAACAGAGGAUUGAGCAUCA
# B5: chr1:39494447:39494448:+_ENSG00000168653_ENST00000372967|hu_mus|hu_hu_hu_mus_False|1_48 (ssRNA)
# RNA: GGGAGUUCUACAGUCCGACGAUCGCACCGAGCGGCGUUCUUAUAGGGCUGUUCUGCGCUUAGGAACAUAAAGUGCCGGUCCAGGCUAAGGCCGAACUUUUUCUGUAUGUCAAGGAAAGGCAUGGCUCUGCAGUGCCCCCUUGACAACAGAGGAUUGAGCAUCA
# B6: chr11:18422405:18422406:+_ENSG00000134333_ENST00000379412|hu_hu|motif|central (ssRNA)
# RNA: GGGAGUUCUACAGUCCGACGAUCCAGCUUGGAGUUUGCAGUUACAUUAUAGUCUUUGCCAGAGACAAUCUUUGGUGUUCGGAGGAAAAGGCUGCCAUGUUGGAGAUCCAUCAUCUCUCCCUUCAAUUUGUCUUCGAUGACAUCCAACAGAGGAUUGAGCAUCA
# B7: chr10:106025898:106025899:+_ENSG00000148834_ENST00000369713|hu_mus|FALSE|FALSE (ssRNA)
# RNA: GGGAGUUCUACAGUCCGACGAUCUAGACACUCCUUGAGCUCCAAUGCUUCCAGUCGCUGAAACCAAGGCCAAGUAAGAUAAUCAACCAUAGAAGGAGAAUCCCCACCAAGGAAGCUCUUGUAAUUAUCCAUGCCCUCCUCUAGCAACAGAGGAUUGAGCAUCA
# B8: chr7:77256914:77256915:+_ENSG00000127947_ENST00000248594|hu_hu|motif|central (ssRNA)
# RNA: GGGAGUUCUACAGUCCGACGAUCUAUAUUAUGUCUAGCAAUGGACAUUGGCAAUACUUUCCUAGUAGAAAUGCUUUCAGUACGGGUGGCAGCAGAAACUGUGGCACUUGCUGUUGAAAUAUUAGUUUUAUUCUGGGUCACAGCCAACAGAGGAUUGAGCAUCA
# B9: 75765044_75765164_3056_3pUTR_ENSMUSG00000042410_ENSMUST00000047232|mouse|control|control (ssRNA)
# RNA: GGGAGUUCUACAGUCCGACGAUCUUUCUUUUAAUUUAGGUUAAACCAGUAAUUCAAAAAAGCAUUAAACCAUUAUUAAGAAUUAAACUGAAAAUGUUUUUCCAUGAAAAUUUAUCAGGCUAUUUGUGGCUAAUUAAAAAAAAACAACAGAGGAUUGAGCAUCA
# B10: chr2:183846084:183846085:-_ENSG00000061676_ENST00000360982|hu_hu|motif|central (ssRNA)
# RNA: GGGAGUUCUACAGUCCGACGAUCAAGGUACUGCACGUAAUACCUCUGCAUUACAGGUCCGUAUUUCCUCACAUGUGCUCGGAGUUCUUCCAUGUAAAAUAUUAAUUCAGCAAUGUGCUUAUCUAUAAAGUCGUCUGCACUCUUCAACAGAGGAUUGAGCAUCA
# B11: chr1:137271502:137271503:-_ENSMUSG00000041889_ENSMUST00000041240|mus_mus|FALSE|FALSE (ssRNA)
# RNA: GGGAGUUCUACAGUCCGACGAUCCAGUCCUCACUCGCCAGCGCCAGAGGAGCCCCAAGCACCAGCAGGACGACGGCUGCGAGCGGCGCGGUCCCGCGGGGCCCCGCGGGCGGCAUGGCGAGAGGGGGCUGGGCGCGGCCAGGACAACAGAGGAUUGAGCAUCA
# B12: chr3:32582686:32582687:-_ENSG00000144635_ENST00000273130|hu_hu|motif|central (ssRNA)
# RNA: GGGAGUUCUACAGUCCGACGAUCUCUCUGGGGAGAAGCCGGGAAGUCUUCUCCUGGCUCUACAUAUUCUUGGAAGUCUCGGAUCAACUUUUGUUCCAUUUGUUUCAUUUCUUCAGGAGGGAUUUUCAGUUUGUCAACAUGUUCCAACAGAGGAUUGAGCAUCA
# B13: chr3:148802587:148802588:-_ENSG00000071794_ENST00000310053|hu_mus|hu_hu_hu_mus_False|38_38 (ssRNA)
# RNA: GGGAGUUCUACAGUCCGACGAUCUCCAACAACUUGUCCUCUCAUAGUUCCAAAUAAAACCAAAUCUUGCUCUUCAUCACUCGUUAGGAAGUCAUCUGGAGGGAUAAUGUCUUGGAAUUCAAAAUGUGGCAAGAAAGUUGAGUACAACAGAGGAUUGAGCAUCA
# B14: chr2:42509997:42509998:+_ENSG00000143924_ENST00000318522|hu_mus|hu_hu_hu_mus_True|48_88 (ssRNA)
# RNA: GGGAGUUCUACAGUCCGACGAUCUCGCUGAGUCCUCUCCUCAUAAUUAAAUAGUACUACCACUGAGGCGAUAAAAUAAACUAUCUCCCCGGUCGGAAGCAGGUAUACAUUCGCUCUACAGUCCUUUCCUCGAUAACCGUAUACCAACAGAGGAUUGAGCAUCA
# Target: T1, UNK ZnF1-3
# Assay: nsRBNS (natural sequence RNA bind-n-seq); RBNS binding buffer (assumed for nsRBNS): 25 mM Tris pH 7.5, 150 mM KCl, 3 mM MgCl2, 0.01% Triton X-100, 500 ug/ml BSA, 20 U/ml SUPERase-In, 4 C; UNK is unkempt and MSI1 is Musashi-1; names of the RNAs are library labels; protein concentration not given here; high values mean tight binding
row,Binder,binding signal [enrichment R]
1,B1,0.831
2,B2,0.522
3,B3,2.14
4,B4,1.02
5,B5,0.68
6,B6,0.638
7,B7,1.28
8,B8,1.7
9,B9,0.747
10,B10,0.887
11,B11,0.944
12,B12,0.784
13,B13,1.31
14,B14,1.59
